The record followed here is publication PMC5700166.

What all share (test): protein-binding microarray (PBM)
What all share (settings): PBM: ~300 nM protein, 6 mM HEPES pH 7.8, 80 mM KCl, 0.5 mM EDTA, 0.5 mM EGTA, 6% glycerol, 35 ng/ul poly-dIdC, 1% milk, 1 h, room temperature; Ap Aiptasia and Nv Nematostella (sea anemones) / Co Capsaspora / Aq Amphimedon (sponge) / Dm Drosophila / Hu human; RHD is the Rel homology domain; high values mean tight binding; most listed sequences are background and not binding sites; double strand, one strand shown

In one test the target is T1, GST-Ap-NF-kB RHD (UniProt A0A913YAJ5).
T1 sequence: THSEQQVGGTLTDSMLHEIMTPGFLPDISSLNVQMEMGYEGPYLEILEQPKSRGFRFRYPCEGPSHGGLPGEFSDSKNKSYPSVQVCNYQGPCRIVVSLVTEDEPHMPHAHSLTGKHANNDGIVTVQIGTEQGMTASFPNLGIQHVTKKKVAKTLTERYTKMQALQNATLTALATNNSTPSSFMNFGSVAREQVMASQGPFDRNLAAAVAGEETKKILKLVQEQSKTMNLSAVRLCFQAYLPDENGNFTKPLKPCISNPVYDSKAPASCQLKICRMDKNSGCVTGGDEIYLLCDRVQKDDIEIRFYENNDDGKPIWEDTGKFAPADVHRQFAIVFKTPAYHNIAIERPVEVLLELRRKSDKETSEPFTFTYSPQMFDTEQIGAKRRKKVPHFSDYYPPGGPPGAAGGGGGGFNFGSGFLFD

Another test addresses T2, GST-Co-NF-kB (UniProt F1ARL5).
T2 sequence: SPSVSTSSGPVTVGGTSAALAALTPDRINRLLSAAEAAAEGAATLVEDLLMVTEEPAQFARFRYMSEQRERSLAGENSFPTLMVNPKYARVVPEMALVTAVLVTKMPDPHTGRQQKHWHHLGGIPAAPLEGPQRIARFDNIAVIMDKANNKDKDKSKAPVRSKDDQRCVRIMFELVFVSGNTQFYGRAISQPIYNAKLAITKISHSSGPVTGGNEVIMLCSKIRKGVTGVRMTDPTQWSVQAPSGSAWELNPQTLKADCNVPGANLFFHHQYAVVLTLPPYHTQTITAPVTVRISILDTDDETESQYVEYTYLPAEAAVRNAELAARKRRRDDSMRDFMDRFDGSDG

Test [1] deals with T3, GST-Nv-NF-kB (Cys allele) (UniProt E5G601).
T3 sequence: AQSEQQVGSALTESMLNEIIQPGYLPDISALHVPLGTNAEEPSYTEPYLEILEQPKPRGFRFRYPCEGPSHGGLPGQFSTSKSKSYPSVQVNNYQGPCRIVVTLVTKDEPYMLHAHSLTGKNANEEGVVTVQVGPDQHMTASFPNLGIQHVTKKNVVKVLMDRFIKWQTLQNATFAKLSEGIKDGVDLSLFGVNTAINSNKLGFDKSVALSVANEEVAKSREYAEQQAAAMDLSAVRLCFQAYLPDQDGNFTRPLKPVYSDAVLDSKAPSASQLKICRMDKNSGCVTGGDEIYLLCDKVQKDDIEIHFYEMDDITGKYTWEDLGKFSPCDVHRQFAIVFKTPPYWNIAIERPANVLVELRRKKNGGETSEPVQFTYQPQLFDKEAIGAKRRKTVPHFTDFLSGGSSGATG

For the next test, the target named is T4, GST-Dm-Relish (UniProt Q94527).
T4 sequence: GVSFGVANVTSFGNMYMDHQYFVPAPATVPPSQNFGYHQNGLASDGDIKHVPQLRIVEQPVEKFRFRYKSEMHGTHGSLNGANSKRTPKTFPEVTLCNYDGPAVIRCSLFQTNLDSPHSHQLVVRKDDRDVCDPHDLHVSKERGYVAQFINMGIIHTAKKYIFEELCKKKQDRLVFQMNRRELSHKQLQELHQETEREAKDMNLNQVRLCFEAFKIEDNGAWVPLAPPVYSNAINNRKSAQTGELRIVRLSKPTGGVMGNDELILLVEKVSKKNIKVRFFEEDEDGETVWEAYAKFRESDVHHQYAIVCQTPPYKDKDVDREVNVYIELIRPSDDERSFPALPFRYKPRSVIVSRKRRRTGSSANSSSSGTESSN

Only a part is listed here, and it is no random draw. The list includes weakly bound sequences.

In the case of “CCGATTAACATCACAGGGAAAAATGATGTTAATCGGGTCTTGATTCGCTTGACGCTGCTG”, the binding signal with GST-Ap-NF-kB RHD turned out to be 2.81 z-score; with GST-Co-NF-kB, 5.03 z-score.

On to “CCGATTAACATCAGGGGGTTCCATGATGTTAATCGGGTCTTGATTCGCTTGACGCTGCTG”, for which the results for the binding signal (with GST-Ap-NF-kB RHD; in test [1]; with GST-Dm-Relish) were 7.79 z-score, 5.3 z-score and 9.47 z-score, respectively.

On to “CCGATTAACATCACCCCCCCTGATGATGTTAATCGGGTCTTGATTCGCTTGACGCTGCTG”, for which the binding signal with GST-Ap-NF-kB RHD stood at 4.83 z-score; with GST-Co-NF-kB, 5.83 z-score.

Take “CCGATTAACATCAAAAAAGTCCGTGATGTTAATCGGGTCTTGATTCGCTTGACGCTGCTG”: the binding signal with GST-Ap-NF-kB RHD stood at 0.0431 z-score; in the test with GST-Co-NF-kB, 0.644 z-score.

Consider “CCGATTAACATCAAAAATTTTCCTGATGTTAATCGGGTCTTGATTCGCTTGACGCTGCTG”, for which the binding signal in the test with GST-Ap-NF-kB RHD worked out at 0.225 z-score; in test [1] it was 0.772 z-score; with GST-Dm-Relish, 2.62 z-score.

With “CCGATTAACATCAGACATGGGAATGATGTTAATCGGGTCTTGATTCGCTTGACGCTGCTG”, the results for the binding signal (with GST-Ap-NF-kB RHD; in test [1]; in the test with GST-Dm-Relish) were 0.681 z-score, 1.46 z-score and 0.259 z-score, respectively.

As for “CCGATTAACATCAGAATATTCCCTGATGTTAATCGGGTCTTGATTCGCTTGACGCTGCTG”, the binding signal in the test with GST-Ap-NF-kB RHD was 5.6 z-score; in the test with GST-Co-NF-kB, 3.41 z-score.

Consider “CCGATTAACATCAGGAGTTTACCTGATGTTAATCGGGTCTTGATTCGCTTGACGCTGCTG”, for which the binding signal was 1.12 z-score with GST-Ap-NF-kB RHD and -0.094 z-score with GST-Co-NF-kB.

On to “CCGATTAACATCAGGGGGATGCATGATGTTAATCGGGTCTTGATTCGCTTGACGCTGCTG”, for which the binding signal with GST-Ap-NF-kB RHD amounted to 4.72 z-score; in test [1], 4.49 z-score; with GST-Dm-Relish, 3.39 z-score.

Turning to “CCGATTAACATCAAAGTCCCCCCTGATGTTAATCGGGTCTTGATTCGCTTGACGCTGCTG”, the binding signal with GST-Ap-NF-kB RHD was found to be 7.56 z-score; in test [1] it was 6.37 z-score; with GST-Dm-Relish, 7.85 z-score.

“CCGATTAACATCAGGGATTTACATGATGTTAATCGGGTCTTGATTCGCTTGACGCTGCTG”: the binding signal with GST-Ap-NF-kB RHD is 2.19 z-score; with GST-Co-NF-kB, 0.832 z-score.

Consider “CCGATTAACATCAAAATTCCCGATGATGTTAATCGGGTCTTGATTCGCTTGACGCTGCTG”, for which the binding signal with GST-Ap-NF-kB RHD stood at 4.37 z-score; in test [1] it was 6.05 z-score; in the test with GST-Dm-Relish, 5.06 z-score.
